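Where inhibition never reached the appropriate level, the endpoint shown equals the highest concentration tested. Otherwise, values were interpolated linearly from a five-concentration, 48-hour dose response in 96-well plates. GI50 = concentration required for 50% inhibition of growth.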 Calls of active or inactive are those of the source. Rule as the data show it: active = GI50 up to about 1.1 µM and inactive = higher.
The compounds below were run on NCI-H322M (assay: NCI tumour cell line growth inhibition, 48 h).

Row | Structure (SMILES) | GI50
1 | COc1cc2nc(-c3cccs3)oc(=O)c2cc1OC | inactive: > 100 µM
2 | CN(C)C=O.O=C(Nc1nnn[nH]1)c1nc(O)cc(-c2ccccc2)n1 | inactive: > 100 µM
3 | O=C(OCc1ccccc1)N(CCCCN(CCCNCc1ccccc1)C(=O)OCc1ccccc1)CCCNCc1ccccc1 | inactive: 1.39 µM
4 | CN(C)Cc1cc(C(C)(C)C)ccc1-c1ccc(C(C)(C)C)cc1CN(C)C | inactive: > 100 µM
5 | CC(C)N1CCOC(c2ccc(O)c(O)c2)C1 (centres undefined) | inactive: > 100 µM
6 | O=C(NC1CCCCC1NC(c1ccccc1)(c1ccccc1)c1ccccc1)C(=O)NC1CCCCC1NC(c1ccccc1)(c1ccccc1)c1ccccc1 (centres undefined) | inactive: > 100 µM
7 | c1ccc2c(c1)nc1n2CCCn2ccnc2-1 | inactive: 92.5 µM
8 | COC(=O)/C=C(C)/C=C/c1cc(C(C)=O)c(C)o1 | inactive: > 100 µM
9 | CC1NOC(NS(=O)(=O)c2ccc(/N=N/c3c(O)c(C(=O)O)cc4ccccc34)cc2)C1C (centres undefined) | inactive: > 100 µM
10 | COC(=O)C1=C(OC(=O)/C=C/c2ccc(Cl)cc2)C(C(=O)OC)[C@]2(O)[C@@H](C(=O)OC)[C@H]1C[C@@H](c1ccccc1)[C@@H]2C(=O)OC (some centres undefined) | inactive: 6.38 µM
11 | O=C(O)c1cc2ccccc2c(O)c1O | inactive: 14.4 µM
12 | CN(C)c1ccc(/N=N\c2cccc3ncccc23)cc1 | inactive: > 100 µM
13 | O=C(/C=C1\Nc2ccccc2N\C1=C\C(=O)c1ccc(Cl)cc1)c1ccccc1 | inactive: 83 µM
14 | NC(=O)NNCc1c(-c2ccccc2)no[n+]1[O-] | inactive: > 100 µM
15 | CCOC(=O)CCC(NC(=O)c1ccc(OCc2nc3cc(C(F)(F)F)ccc3nc2-c2ccccc2)cc1)C(=O)OCC (centres undefined) | inactive: > 100 µM
16 | N#C/C(N)=C(\C#N)NC(=O)C(=O)N/C(C#N)=C(\N)C#N | inactive: > 100 µM
17 | C/C(=N/NC(=O)C(N)=O)C(CC(C(=O)Nc1ccccc1C)/C(C)=N\NC(=O)C(N)=O)C(=O)Nc1ccccc1C (centres undefined) | inactive: > 100 µM
18 | O=Cc1c(-c2ccccc2)nc2ccccc2c1O | inactive: 46.1 µM
19 | Cc1cc2c(=O)c(C)n[nH]c2c(C#N)c1C | inactive: > 100 µM
20 | CCN(CC)CC/N=C\c1c(O)c(O)c(C(C)C)c2cc(C)c(-c3c(C)cc4c(C(C)C)c(O)c(O)c(/C=N/CCN(CC)CC)c4c3O)c(O)c12 | inactive: 6.17 µM
21 | COC(=O)N/N=C/c1oc(-c2cccc([N+](=O)[O-])c2)c(-c2cccc([N+](=O)[O-])c2)c1[N+](=O)[O-] | inactive: > 100 µM

Row | Structure (SMILES) | GI50
22 | Oc1ccc(I)c2cccnc12 | inactive: 7.71 µM
23 | C/C(=C\CO)CC/C=C(\C)CNc1ccc([N+](=O)[O-])cc1 | inactive: 1.55 µM
24 | O=C1OCCC1C(O)C1c2ccccc2-c2ccccc21 (centres undefined) | inactive: > 100 µM
25 | COC(=O)C(Cc1cc(OC)c(OC)c(OC)c1)(NC(=O)c1ccccc1)P(=O)(OC)OC (centres undefined) | inactive: > 100 µM
26 | CCc1ccccc1NC(=O)/C=C/c1ccccc1 | inactive: > 100 µM
27 | CC(C)CC(NC=O)C(=O)NC(Cc1ccccc1)NC(=O)CNC(=O)C(C)NC(=O)C(N)Cc1ccc(O)cc1 (centres undefined) | inactive: > 100 µM
28 | CCCC(=O)Oc1ccc(/C=N/NC(N)=S)nc1 | inactive: > 100 µM
29 | Cc1ccccc1NC(=O)C(=O)CC(=O)C1CCOC1=O (centres undefined) | inactive: > 100 µM
30 | COC1(CC[C@@H](C)COC2OC(CO)C(O)C(O)C2O)O[C@H]2C[C@H]3[C@@H]4CC=C5C[C@@H](OC6OC(CO)C(O)C(OC7OC(CO)C(O)C(O)C7O)C6OC6OC(C)C(O)C(O)C6O)CC[C@]5(C)[C@H]4CC[C@]3(C)[C@H]2[C@@H]1C (some centres undefined) | inactive: 4.29 µM
31 | CCC(=O)Nc1ccc(/N=N/N(C)C)cc1 | inactive: > 100 µM
32 | COC(C(=O)NN)c1ccccc1 (centres undefined) | inactive: > 100 µM
33 | c1ncc(C23C4C5C6C4C2C6C53)[nH]1 (centres undefined) | inactive: > 100 µM
34 | CC(NC(=O)OC(C)(C)C)C(=O)NC(Cc1ccccc1)C(=O)NCC(=O)ON=C1CCCC1 (centres undefined) | inactive: > 100 µM
35 | Cc1ccccc1Nc1nc(NNC(=O)Cc2ccccc2)nc(NNC(=O)c2ccncc2)n1 | inactive: > 10 µM
36 | c1ccc(OC2=NC3=S(S2)SC(Oc2ccccc2)=N3)cc1 | inactive: 18.9 µM
37 | CC(N)C(=O)c1ccc(O)cc1 (centres undefined) | inactive: > 100 µM
38 | CCOC(=O)c1nc2ccc([N+](=O)[O-])cc2c2c1CCO2 | inactive: > 100 µM
39 | CCOC(=O)c1sc2c(c1OC(=O)c1cccs1)c(=O)n(-c1ccccc1)c(=S)n2-c1ccccc1 | inactive: 23.2 µM
40 | CCOC(=O)/C=C/C1OC(C)(C)OC1/C=C/C(=O)OCC (centres undefined) | inactive: 27.9 µM
41 | CCCCNC(=S)N/C=C1\C(=O)Nc2ccccc2C1=O | inactive: > 10 µM
42 | CC(=O)C(I(OS(=O)(=O)c1ccc(C)cc1)c1ccccc1)=P(c1ccccc1)(c1ccccc1)c1ccccc1 | inactive: 31.4 µM

Row | Structure (SMILES) | GI50
43 | Cc1nc2c(n1Cc1ccc(Cl)cc1)C(=O)c1ccccc1C2=O | inactive: 14.3 µM
44 | O=C(O)c1ccccc1C(=O)NCC1S(=O)(=O)OCCOS1(=O)=O | inactive: > 100 µM
45 | COC(=O)c1c(O)ccc2[nH]c3c(O)c4ccccc4cc3c12 | inactive: 22.6 µM
46 | CC1(C)OC(=O)N(c2ccccc2)C12C=Cc1cccc([N+](=O)[O-])c1O2 (centres undefined) | inactive: > 100 µM
47 | CCOC(=O)c1sc(N)nc1N1CCCC1 | inactive: > 100 µM
48 | CC12CCC(C1)C(C)(C)C2OC(=O)c1ccccc1N (centres undefined) | inactive: 12.3 µM
49 | CCCCCCCC(=O)NC(C)(C)C(=O)NCC(=O)NC(CC(C)C)C(=O)NC(C)(C)C(=O)NCC(=O)NCC(=O)NC(CC(C)C)C(=O)NC(C)(C)C(=O)NCC(=O)NC(C(=O)NC(CO)CC(C)C)C(C)CC (centres undefined) | inactive: 4.18 µM
50 | COC(=O)c1c(C)cccc1/C=C1\Cc2cc(C)cc(C)c2C1=O | inactive: 54.3 µM
51 | Clc1ccc2c(NC3CCC(N4CCCCC4)CC3)ccnc2c1 (centres undefined) | inactive: 20.4 µM
52 | COC(=O)C(CC(C)C)NC(=O)C(NC(=O)c1ccc(-c2ccc(Cl)cc2Cl)o1)C(C)C (centres undefined) | inactive: 29.6 µM
53 | COC(=O)[C@@]12CSC[C@]1(C(=O)OC)N[C@@H](c1ccccc1O)C2 | inactive: > 100 µM
54 | COC1CC(OC2C(C)OC(OC3C(C)OC(OC4C(O)CC(O[C@H]5CC[C@@]6(C)C(=CC[C@]7(O)[C@@H]6C[C@@H](OC(=O)/C=C/c6ccccc6)[C@@]6(C)[C@]7(O)CC[C@@]6(O)C(C)=O)C5)OC4C)CC3OC)CC2OC)OC(C)C1O (some centres undefined) | inactive: > 6.25 µM
55 | O=C(CCCCCCCCC(=O)N1C(=O)CC(=O)N(c2ccc(Cl)cc2)C1=S)N1C(=O)CC(=O)N(c2ccc(Cl)cc2)C1=S | inactive: 38.5 µM
56 | COc1ccc(-c2nc3cc(C(F)(F)F)ccc3n2CC2CCCN3CCCCC23)cc1 (centres undefined) | inactive: 16.6 µM
57 | O=C1c2ccccc2C(=O)c2c(O)c(NCCNCCO)cc(O)c21 | inactive: 3.27 µM
58 | COc1cc(-c2cc(=O)c3c(OC)c(OC)c(OC)c(OC)c3o2)c(OC)c(OC)c1OC | inactive: 36.3 µM
59 | COc1c(-c2nc3ccc(N4CCN(C)CC4)nc3[nH]2)cc(OC)c2c1nc(COC(C)=O)n2C | inactive: 58.7 µM
60 | CC(=O)NC1C(OCC(=O)NC(C)C(=O)NC(CCC(=O)NCCCCCNc2ccc([N+](=O)[O-])c3[nH]c4ccccc4c(=O)c23)C(N)=O)C(O)C(CO)OC1(C)OCc1ccccc1 (centres undefined) | inactive: > 50 µM
61 | CC(=O)Nc1ccc(/C=c2\sc3nnc(CCC(=O)Nc4ccccc4Cl)n3c2=O)cc1 | inactive: 57.1 µM
62 | COc1cc(O)c2c(=O)c3c(C)cccc3n(C)c2c1 | inactive: > 10 µM
63 | C=C/C(C)=C\CC1[C@](C)(O)CC[C@H]2C(C)(C)C(=O)CC[C@]12C (some centres undefined) | inactive: > 100 µM

Row | Structure (SMILES) | GI50
64 | CC1OC(OC2CC(O)(C(=O)CO)Cc3c(O)c4c(c(O)c32)C(=O)c2ccccc2C4=O)CC(N)C1O (centres undefined) | active: 0.0962 µM
65 | CC1(C2CCC3(C)C(C2)C3Sc2ccccc2)OCCO1 (centres undefined) | inactive: 31.4 µM
66 | N=C(N)N/N=C/c1nc2sccn2c1[N+](=O)[O-] | inactive: 22.6 µM
67 | COCc1cc2c(s1)C(=O)C1=C(C2=O)C2(C=C(Br)C(=O)C(Br)=C2)CCN1 | inactive: 12.8 µM
68 | O=C(Cc1ccccc1)N/N=C(/c1nc2ccc([N+](=O)[O-])cc2nc1O)C(O)c1ccccc1Cl (centres undefined) | inactive: > 100 µM
69 | CN(C)CCCNC(=O)N/N=C\c1cccc2ccccc12 | inactive: > 10 µM
70 | Cc1cn(CCCCOC(=O)NC(CCCNC(=N)N)C(=O)O)c(=O)[nH]c1=O (centres undefined) | inactive: > 100 µM
71 | CC1=C(C(=O)Nc2ccc(Cl)c(Cl)c2)C(c2ccc([N+](=O)[O-])cc2)C(C(=O)Nc2ccc(Cl)c(Cl)c2)=C(C)N1 | inactive: 4.27 µM
72 | N=C(NC(=N)Nc1ccc(S(=O)(=O)Nc2cnc3ccccc3n2)cc1)Nc1ccc(Br)cc1 | inactive: > 100 µM
73 | O=[N+]([O-])c1ccc(/N=N\c2c(O)c(S(=O)(=O)O)cc3cc(S(=O)(=O)O)ccc23)cc1 | inactive: > 100 µM
74 | O=C(O)CP(=O)(O)O | inactive: > 100 µM
75 | O=C1C2C3C=CC(C2C(=O)N1COP(=O)(O)O)C1C2C(=O)N(COP(=O)(O)O)C(=O)C2C31 (centres undefined) | inactive: > 100 µM
76 | CC1OC(OC2C[C@](O)(C(=O)CF)Cc3c(O)c4c(c(O)c32)C(=O)c2ccccc2C4=O)CC(N)C1O (some centres undefined) | active: 0.255 µM
77 | O=C(O)CN(c1ccccc1)S(=O)(=O)c1cccc([N+](=O)[O-])c1 | inactive: > 100 µM
78 | COC(=O)C12Oc3ccc(-c4ccc5c(c4O)C(O)=C4C(=O)CC(C)C(O)C4(C(=O)OC)O5)c(O)c3C(O)=C1C(=O)CC(C)C2O (centres undefined) | active: 0.0647 µM
79 | CN(C)CCC1(C2=CCCC2)CC/C(=C\c2ccccc2)C1=O (centres undefined) | inactive: 16.3 µM
80 | O=C(O)c1ccccc1NS(=O)(=O)c1ccc(Cl)cc1 | inactive: > 100 µM
81 | CCCCCCCCCC(=O)N[C@H]1CCc2cc(OC)c(OC)c(OC)c2-c2ccc(SC)c(=O)cc21 | active: 0.0421 µM
82 | CC1=C(C)C(=O)O[C@@H]([C@](C)(O)[C@]2(O)CC[C@@]3(O)[C@@H]4C[C@H]5O[C@]56[C@@H](O)C=CC(=O)[C@]6(C)[C@H]4CC[C@]23C)C1 | inactive: 1.16 µM
83 | CN(C)CCCNc1ccc2c(=O)n(CCN(C)C)c(=O)n3c4ccccc4c(=O)c1c23 | active: 0.054 µM
84 | COc1ccc2c(c1)c(=O)c1c(NCCN(C)C)ccc3nnn2c31 | inactive: 1.42 µM
